Test results from the RNAGym collection of RNA variant scans (doi:10.1101/gad.245936.114).
Variants at the floor of the assay are shown more often than the library holds them.

B1: tRNA (parent)
chain: CUCUCGGUAGCCAAGUUGGUUUAAGGCGCAAGACUUUAAUUUAUCACUACGAAAUCUUGAGAUCGGGCGUUCGACUCGCCCCCGGGAGAUUUUUUCCUCGAGCAA

Variants of: B1
Assay: nonsense suppression (GFP-seq) (ratio to wild type); higher = more function; SUP4oc tRNA, yeast GFP reporter sort-seq
Outline: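 Sorted GFP/RFP bins of yeast were each Illumina-sequenced with a phred ≥30 cutoff; the cells held a genome-integrated ochre-suppressor tRNA variant from a library with ~3% random mutations, a galactose-driven GFP ochre reporter, and RFP. Culture was in raffinose/galactose medium containing 80 mg/L adenine. Nonsense suppression, termed GFPSEQ, is the median GFP/RFP of the bins weighted by each variant's estimated cell share per bin, relative to the unmutated parent tRNA, for variants reaching ≥100 reads and ≥30 cells.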

C72A C79A and U76G G84A cannot be ordered by nonsense suppression: ≤ 0.026 for the first, ≤ 0.026 for the second.

U71C G73C C81A and A74U C80A cannot be ordered by nonsense suppression: ≤ 0.026 for the first, ≤ 0.026 for the second.

C68G C83G G84A G88A and C75G G86A A87C cannot be ordered by nonsense suppression: ≤ 0.026 for the first, ≤ 0.026 for the second.

First: G78A C79U
Second: G73A G88U
The nonsense suppression of the first is lower: ≤ 0.026 for the first, 0.0757 for the second.

Compared with G73A G88A, G67C C77G is lower in nonsense suppression: 0.0281 for the first, ≤ 0.026 for the second.

U70G U76C G86A and U76G A87C cannot be ordered by nonsense suppression: ≤ 0.026 for the first, ≤ 0.026 for the second.

G73U C75U G78C C81G and G66U G69C cannot be ordered by nonsense suppression: ≤ 0.026 for the first, ≤ 0.026 for the second.

G66U C68U and G66U C68G cannot be ordered by nonsense suppression: ≤ 0.026 for the first, ≤ 0.026 for the second.

G69C C80G and G66U G84U cannot be ordered by nonsense suppression: ≤ 0.026 for the first, ≤ 0.026 for the second.

G69U C79A and U71C C77A C82G cannot be ordered by nonsense suppression: ≤ 0.026 for the first, ≤ 0.026 for the second.

C77G G85A and G69C A74G cannot be ordered by nonsense suppression: ≤ 0.026 for the first, ≤ 0.026 for the second.

First: A74U G78A
Second: C72U A74C C77A
The nonsense suppression of the first is higher: 0.0557 for the first, ≤ 0.026 for the second.

G66U A89C and G69C U76G G88C cannot be ordered by nonsense suppression: ≤ 0.026 for the first, ≤ 0.026 for the second.

G67A U70C and G67A U70A cannot be ordered by nonsense suppression: ≤ 0.026 for the first, ≤ 0.026 for the second.

U71G G84U G88A and G67U A87C cannot be ordered by nonsense suppression: ≤ 0.026 for the first, ≤ 0.026 for the second.

U70G G78C C81A G84A and U71A G86C cannot be ordered by nonsense suppression: ≤ 0.026 for the first, ≤ 0.026 for the second.

U71G G84C and U70C A74C cannot be ordered by nonsense suppression: ≤ 0.026 for the first, ≤ 0.026 for the second.

U71A G78A C79A and C68A G69U cannot be ordered by nonsense suppression: ≤ 0.026 for the first, ≤ 0.026 for the second.

C72A C75U and C72A C75G cannot be ordered by nonsense suppression: ≤ 0.026 for the first, ≤ 0.026 for the second.

Going from G78A A87C to G78A A87G, the nonsense suppression rises from 0.032 to 0.294.

U70G U76G C81A G84A and G69C U71C C81G cannot be ordered by nonsense suppression: ≤ 0.026 for the first, ≤ 0.026 for the second.

C68A G88C and G67C G73C cannot be ordered by nonsense suppression: ≤ 0.026 for the first, ≤ 0.026 for the second.

U71A G73C and G73A A89U cannot be ordered by nonsense suppression: ≤ 0.026 for the first, ≤ 0.026 for the second.

G67U C77U G84A G88C and C77U G86A cannot be ordered by nonsense suppression: ≤ 0.026 for the first, ≤ 0.026 for the second.

First: U70A C80G
Second: C68A C75A
The nonsense suppression of the first is lower: ≤ 0.026 for the first, 0.0286 for the second.

First: G69C G86U
Second: A74G G78U
The nonsense suppression of the first is lower: ≤ 0.026 for the first, 0.0279 for the second.

U71G A87G and G67U A74U cannot be ordered by nonsense suppression: ≤ 0.026 for the first, ≤ 0.026 for the second.

G67U A74C and G67C G69A G78A cannot be ordered by nonsense suppression: ≤ 0.026 for the first, ≤ 0.026 for the second.

U76A G88C and U71G C79A cannot be ordered by nonsense suppression: ≤ 0.026 for the first, ≤ 0.026 for the second.

C77U A87U and C77U A87C cannot be ordered by nonsense suppression: ≤ 0.026 for the first, ≤ 0.026 for the second.

U70G C83U and U70C G85A cannot be ordered by nonsense suppression: ≤ 0.026 for the first, ≤ 0.026 for the second.

C72U U76A G84U and U71G C83A cannot be ordered by nonsense suppression: ≤ 0.026 for the first, ≤ 0.026 for the second.

G69A A74C C79G and U76G G78U G86A cannot be ordered by nonsense suppression: ≤ 0.026 for the first, ≤ 0.026 for the second.

C68A U76G and C72G G86U cannot be ordered by nonsense suppression: ≤ 0.026 for the first, ≤ 0.026 for the second.

U76A G78C and C75U C81G A89G cannot be ordered by nonsense suppression: ≤ 0.026 for the first, ≤ 0.026 for the second.

C77G G88U and G66C G67A C80G cannot be ordered by nonsense suppression: ≤ 0.026 for the first, ≤ 0.026 for the second.

C72G A87C and G67C G85U cannot be ordered by nonsense suppression: ≤ 0.026 for the first, ≤ 0.026 for the second.

U71C C80G and G67A U70G A87U cannot be ordered by nonsense suppression: ≤ 0.026 for the first, ≤ 0.026 for the second.

Going from U70G G86C to G67U C79G, the nonsense suppression rises from ≤ 0.026 to 0.768.

A74G G84C and A74G G84U cannot be ordered by nonsense suppression: ≤ 0.026 for the first, ≤ 0.026 for the second.

G67A C77A and G67A C77U cannot be ordered by nonsense suppression: ≤ 0.026 for the first, ≤ 0.026 for the second.

U70C G78U A89U and G69A C79G cannot be ordered by nonsense suppression: ≤ 0.026 for the first, ≤ 0.026 for the second.

G67A C72U and G67A C72G cannot be ordered by nonsense suppression: ≤ 0.026 for the first, ≤ 0.026 for the second.

G73A U76C A89C and G69A U71C cannot be ordered by nonsense suppression: ≤ 0.026 for the first, ≤ 0.026 for the second.

G69A U71G and A74G U76G cannot be ordered by nonsense suppression: ≤ 0.026 for the first, ≤ 0.026 for the second.

G67C G84U and G73C C83A cannot be ordered by nonsense suppression: ≤ 0.026 for the first, ≤ 0.026 for the second.

C77G G78C and U71G C81A cannot be ordered by nonsense suppression: ≤ 0.026 for the first, ≤ 0.026 for the second.

U71G C81G and U71G G73C cannot be ordered by nonsense suppression: ≤ 0.026 for the first, ≤ 0.026 for the second.

G66C G88U and G78A C80G C81U cannot be ordered by nonsense suppression: ≤ 0.026 for the first, ≤ 0.026 for the second.

C68A U71C and U71C U76C cannot be ordered by nonsense suppression: ≤ 0.026 for the first, ≤ 0.026 for the second.

First: C75A G78C
Second: A74U G86A
The nonsense suppression of the first is higher: 1 for the first, ≤ 0.026 for the second.

Compared with U70G C72G C80G, C75A G85A is higher in nonsense suppression: ≤ 0.026 for the first, 1.05 for the second.

U76A C79A and G66C A74C cannot be ordered by nonsense suppression: ≤ 0.026 for the first, ≤ 0.026 for the second.

G73U A74C C77G and U76G C82U cannot be ordered by nonsense suppression: ≤ 0.026 for the first, ≤ 0.026 for the second.

C68U G85C and G66U C81G G86U cannot be ordered by nonsense suppression: ≤ 0.026 for the first, ≤ 0.026 for the second.

U76G C80G and C72A C80A cannot be ordered by nonsense suppression: ≤ 0.026 for the first, ≤ 0.026 for the second.

G66C G84C A87C and U70G G78A cannot be ordered by nonsense suppression: ≤ 0.026 for the first, ≤ 0.026 for the second.

G67C G69A and C72A C81G cannot be ordered by nonsense suppression: ≤ 0.026 for the first, ≤ 0.026 for the second.

C68A G73C A74U and G73C U76C G86U cannot be ordered by nonsense suppression: ≤ 0.026 for the first, ≤ 0.026 for the second.

C68G C82G and C68G C82A cannot be ordered by nonsense suppression: ≤ 0.026 for the first, ≤ 0.026 for the second.

G78A G86A G88C and A74U G84C cannot be ordered by nonsense suppression: ≤ 0.026 for the first, ≤ 0.026 for the second.

A74U G84A and U76G C83A G88A cannot be ordered by nonsense suppression: ≤ 0.026 for the first, ≤ 0.026 for the second.

A74G C79G A89U and G69C U70C cannot be ordered by nonsense suppression: ≤ 0.026 for the first, ≤ 0.026 for the second.

G73C G84A A87C and G69U G84U cannot be ordered by nonsense suppression: ≤ 0.026 for the first, ≤ 0.026 for the second.

G67C U71G and G73C A74U cannot be ordered by nonsense suppression: ≤ 0.026 for the first, ≤ 0.026 for the second.

Going from C75G G78C to C72U C79A, the nonsense suppression falls from 0.361 to ≤ 0.026.

U70C G84A and C68A G69C A89C cannot be ordered by nonsense suppression: ≤ 0.026 for the first, ≤ 0.026 for the second.

U76A C77A and G66C C68U A74C cannot be ordered by nonsense suppression: ≤ 0.026 for the first, ≤ 0.026 for the second.

U70G A87U and G73C G88U cannot be ordered by nonsense suppression: ≤ 0.026 for the first, ≤ 0.026 for the second.

U70G C81A and G73C C79U cannot be ordered by nonsense suppression: ≤ 0.026 for the first, ≤ 0.026 for the second.

U76A C77U G88U and G66U C68G A74U cannot be ordered by nonsense suppression: ≤ 0.026 for the first, ≤ 0.026 for the second.

C72G U76A and U71C A87C cannot be ordered by nonsense suppression: ≤ 0.026 for the first, ≤ 0.026 for the second.

G69U G78U C83A G86U and G73C C77A cannot be ordered by nonsense suppression: ≤ 0.026 for the first, ≤ 0.026 for the second.

G69U C75A and C75G G88U cannot be ordered by nonsense suppression: ≤ 0.026 for the first, ≤ 0.026 for the second.

U76G G85U and U76G C77G cannot be ordered by nonsense suppression: ≤ 0.026 for the first, ≤ 0.026 for the second.

U70C C82A and U71A A74C C82G G86A cannot be ordered by nonsense suppression: ≤ 0.026 for the first, ≤ 0.026 for the second.

A74U A87G and G69U G86U cannot be ordered by nonsense suppression: ≤ 0.026 for the first, ≤ 0.026 for the second.

C75U C82A C83G and U71A C77G G84U cannot be ordered by nonsense suppression: ≤ 0.026 for the first, ≤ 0.026 for the second.

U70A C72A and U70G C83U G86C cannot be ordered by nonsense suppression: ≤ 0.026 for the first, ≤ 0.026 for the second.

C68U U71A and G73U C77U cannot be ordered by nonsense suppression: ≤ 0.026 for the first, ≤ 0.026 for the second.

Going from G66U C68A G86A to G73A C79U, the nonsense suppression rises from ≤ 0.026 to 0.207.

U71G G85C and U71G G85A cannot be ordered by nonsense suppression: ≤ 0.026 for the first, ≤ 0.026 for the second.

C68A C79A and U70G G85U cannot be ordered by nonsense suppression: ≤ 0.026 for the first, ≤ 0.026 for the second.

In the case of U70G C82U, the nonsense suppression is reported as ≤ 0.026.
